From PubChem BioAssay AID488969 (Vanderbilt High Throughput Screening Facility, 2010)
Over roughly 110,000 compounds, “z-score” has its median near -0.1; the highest 2% begin near 2. This is one part of the list.

target: Metabotropic glutamate receptor 8 (Rattus norvegicus) (UniProt P70579); assay: rat mGluR8 modulators via GIRK flux, primary screen, cell-based, thallium flux, HTS (AID 488969); details: HEK293 rat mGluR8, GIRK (G protein-gated inwardly rectifying potassium channel) thallium flux, FluoZin2; at 10 µM; stronger effect = higher value; submaximal glutamate (EC20) added with thallium
Sequence of UniProt P70579 (P70579 whole entry, looked up): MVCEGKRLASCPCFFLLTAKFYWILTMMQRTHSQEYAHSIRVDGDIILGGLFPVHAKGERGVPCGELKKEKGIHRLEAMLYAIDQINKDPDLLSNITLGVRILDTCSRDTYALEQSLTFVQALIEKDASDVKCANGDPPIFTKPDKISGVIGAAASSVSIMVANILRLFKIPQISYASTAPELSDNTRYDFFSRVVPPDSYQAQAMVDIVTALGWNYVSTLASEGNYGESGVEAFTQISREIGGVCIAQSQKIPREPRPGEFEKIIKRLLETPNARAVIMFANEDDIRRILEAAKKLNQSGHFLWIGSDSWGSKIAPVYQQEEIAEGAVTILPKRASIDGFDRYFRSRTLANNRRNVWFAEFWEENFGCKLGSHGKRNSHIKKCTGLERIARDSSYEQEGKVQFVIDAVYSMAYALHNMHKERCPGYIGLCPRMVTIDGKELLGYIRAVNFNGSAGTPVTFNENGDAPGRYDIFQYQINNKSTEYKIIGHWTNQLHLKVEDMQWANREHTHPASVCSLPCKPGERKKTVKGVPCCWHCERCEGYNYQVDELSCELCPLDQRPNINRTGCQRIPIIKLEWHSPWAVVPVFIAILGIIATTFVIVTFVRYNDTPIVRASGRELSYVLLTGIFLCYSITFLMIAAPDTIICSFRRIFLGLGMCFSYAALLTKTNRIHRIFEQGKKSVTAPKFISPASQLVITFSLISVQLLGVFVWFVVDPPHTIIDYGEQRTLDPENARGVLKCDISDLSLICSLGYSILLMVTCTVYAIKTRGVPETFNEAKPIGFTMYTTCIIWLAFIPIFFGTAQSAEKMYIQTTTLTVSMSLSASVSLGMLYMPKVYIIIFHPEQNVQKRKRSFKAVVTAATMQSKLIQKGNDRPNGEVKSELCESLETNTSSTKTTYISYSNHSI

SMILES | z-score
Cc1nc2c([nH]1)C1(CCN(Cc3ccccc3)CC1)C(C#N)=C(N)O2 | -1.37
CC(C)OCCCN1CN(S(=O)(=O)c2ccc(Cl)cc2)c2nc3ccccc3nc21 | -0.249
CCOC(=O)c1cccc(S(=O)(=O)N2CCCC2)c1 | -0.19
COc1ccc(/C=C/C(=O)c2ccccc2)cc1COc1ccccc1F | -0.0309
COc1cc2c(cc1OC)C(C1C(=O)CC(C)(C)CC1=O)N(C(=O)CCl)CC2 (centres undefined) | -0.0957
O=C(CCN1CCOCC1)Nc1ccc2c(c1)CCC2 | -0.0691
Nc1cc2c(cc1C(=O)c1ccc(Cl)cc1)OCCO2 | -0.542
CCC(C)[C@H](NC(=O)N1CCN(c2cccc(C(F)(F)F)c2)CC1)C(=O)OC (some centres undefined) | -0.093
Cc1ccc(N2C(=O)C(CN(C)C)C2c2ccccc2)cc1 (centres undefined) | -0.0908
N#CCC(=N)N1CCN(c2ccccc2)CC1 | 0.0541
COc1ccc(CCn2c(NCc3ccco3)nc3c2c(=O)[nH]c(=O)n3C)cc1 | 0.0433
COc1ccc(C(=O)N2CCN(C3CCC(c4ccccc4)CC3)CC2)cc1OC (centres undefined) | -1.61
N=C1C(c2nc3ccccc3c(=O)[nH]2)=C(O)CN1CCO | -0.0279
COc1ccc(NC(=O)NC23CC4(C)CC(C)(CC(C)(C4)C2)C3)cc1 | 0.156
NNc1nc2ccc(F)cc2s1 | -0.467
C[N+](C)(C)CCCCCC(=O)/C=N/O | 1
CSc1ccc(/C=N/NC(=O)CN2CCN(Cc3ccccc3)CC2)cc1 | -0.0744
COc1ccc(Cl)cc1Nc1nc(N)nc(C(F)(F)F)n1 | 0.302
Cc1cc2ccccc2n1CCNC(=O)Cc1ccccc1 | -0.443
CCOC(=O)c1c(-c2ccc(C)o2)csc1NC(=O)CN(C)CC(=O)Nc1ccc(C)cc1 | -0.104
COC(=O)C1CC(=O)N(CCc2c[nH]c3ccccc23)C1 (centres undefined) | 0.0229
O=C(Nc1nnc(-c2ccccc2SCc2ccccc2F)s1)Nc1ccccc1F | -0.0793
COC(=O)c1sc2ccccc2c1-n1cccc1C(=O)C(=O)Nc1ccc(Cl)cc1 | -0.228
CCOc1c(Cl)cc(C2NC(=O)NC(C)=C2C(=O)NCc2ccccc2)cc1OC (centres undefined) | 0.0963
COc1ccccc1NC(NC(=O)c1ccccn1)C(Cl)(Cl)Cl (centres undefined) | 0.00494
CCOC(=O)N1CCN(C(=O)c2ccc3c(=O)n(-c4ccc(OC)cc4)c(=S)[nH]c3c2)CC1 | -0.582
CC(OC(=O)c1cccc(S(=O)(=O)Nc2cccc(C(F)(F)F)c2)c1)C(=O)Nc1ccc2c(c1)OCCO2 (centres undefined) | 1.12

SMILES | z-score
CCc1nnc(NC(=O)C2CCCN2S(=O)(=O)c2ccc(C)cc2)s1 (centres undefined) | 0.535
CCCC(=O)NC(C)c1nc2ccccc2n1CC (centres undefined) | -0.68
CC(=O)C1=C(C)NC(SCC(N)=O)=C(C#N)C1c1sccc1C (centres undefined) | -1.12
CCOC(=O)c1[nH]c(C)c(C(=O)Nc2cccc(Cl)c2C)c1C | -0.362
O=C(CCc1nc2ccccc2c(=O)[nH]1)Nc1ccc(F)cc1 | 0.0151
CSc1ccccc1NC(=O)c1ccc(Br)o1 | -0.471
Cc1onc(-c2ccccc2)c1-c1n[nH]c(=S)n1-c1ccccc1Cl | -0.134
CC(C)CNC(=O)c1c(N)n(/N=C/c2ccccn2)c2nc3ccccc3nc12 | 0.175
CC(=O)Nc1ccc(OCC(O)CN2CCN(c3cc(Cl)ccc3C)CC2)cc1 (centres undefined) | 0.103
Cc1oc2cc(O)ccc2c(=O)c1N1C(=O)c2ccccc2C1=O | 0.266
COc1ccc(CCNC(=O)c2cc(-c3ccc(C)c(C)c3O)n[nH]2)cc1OC | -0.207
CCCNCCC(c1ccco1)c1ccccc1OC (centres undefined) | -0.299
CC(Sc1nc2cc(Cl)ccc2s1)C(=O)Nc1ccc2c(c1)OCO2 (centres undefined) | -0.296
COc1ccc(-c2noc(COc3ccc(C)c(C)c3)n2)cc1OC | 0.212
Cc1cc(C)n(-c2nc3ccccc3c(=O)n2OCC(=O)Nc2c(C)cccc2C)n1 | -0.202
Cc1cc(C)cc(OC(=O)CCN2C(=O)c3ccccc3C2=O)c1 | 0.513
Cc1nn(Cc2ccc(Cl)cc2)c(C)c1NC(=O)C1CC=CCC1C(=O)O (centres undefined) | -0.0201
O=C(NCc1cn(-c2ccccc2)nc1-c1ccccc1)c1cccc([N+](=O)[O-])c1 | -0.314
COc1cc(NC(=O)C2CCC(CNc3c(N4CCC(C)CC4)c(=O)c3=O)CC2)cc(OC)c1 (centres undefined) | -2.37
CC1CCN(Cc2csc(N)n2)CC1 | -0.00755
Cc1c(N=C2NC(=O)C(CC(=O)Nc3ccccc3)S2)c(=O)n(-c2ccccc2)n1C (centres undefined) | 1.14
O=C(C(NS(=O)(=O)c1cccc2nsnc12)c1ccccc1)N1CCN(c2ccccc2)CC1 (centres undefined) | 0.466
CN(C)c1cccc(C(=O)Nc2ccc(N3CCOCC3)cc2)c1 | -0.0628
CC(C)(C)OC(=O)N1CCC(c2cc(=O)n3[nH]c(-c4ccc(Cl)cc4)cc3n2)CC1 | -0.208
Cc1ccc(NC(=O)C(=O)NCc2ccc(/C=N/NC(=O)c3c(C)nc4cc(C)ccn34)o2)cc1 | -0.586
Cc1ccc(CS(=O)(=O)CCC(=O)NCC2CCCO2)cc1 (centres undefined) | 0.205
CCOC(=O)Cn1cnc2c(nnn2-c2ccc(OC)cc2)c1=O | -0.0987
